# Results from PubChem BioAssay AID488969 (Vanderbilt High Throughput Screening Facility, 2010).
# Whole data set: some 110,000 compounds, median “z-score” near -0.1, cut for the highest 2% near 2. This is one part of the list. Calls of active or inactive are those of the source.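 The calls were made as follows: active = z-score in the third read window above 3 or below -3; inactive = the rest.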
# Target: Metabotropic glutamate receptor 8 (Rattus norvegicus) (UniProt P70579)
# Test: rat mGluR8 modulators via GIRK flux, primary screen, cell-based, thallium flux, HTS (AID 488969)
# Conditions: HEK293 rat mGluR8, GIRK (G protein-gated inwardly rectifying potassium channel) thallium flux, FluoZin2; at 10 µM; stronger effect = higher value; submaximal glutamate (EC20) added with thallium
# Chain of UniProt P70579 (P70579 whole entry, looked up): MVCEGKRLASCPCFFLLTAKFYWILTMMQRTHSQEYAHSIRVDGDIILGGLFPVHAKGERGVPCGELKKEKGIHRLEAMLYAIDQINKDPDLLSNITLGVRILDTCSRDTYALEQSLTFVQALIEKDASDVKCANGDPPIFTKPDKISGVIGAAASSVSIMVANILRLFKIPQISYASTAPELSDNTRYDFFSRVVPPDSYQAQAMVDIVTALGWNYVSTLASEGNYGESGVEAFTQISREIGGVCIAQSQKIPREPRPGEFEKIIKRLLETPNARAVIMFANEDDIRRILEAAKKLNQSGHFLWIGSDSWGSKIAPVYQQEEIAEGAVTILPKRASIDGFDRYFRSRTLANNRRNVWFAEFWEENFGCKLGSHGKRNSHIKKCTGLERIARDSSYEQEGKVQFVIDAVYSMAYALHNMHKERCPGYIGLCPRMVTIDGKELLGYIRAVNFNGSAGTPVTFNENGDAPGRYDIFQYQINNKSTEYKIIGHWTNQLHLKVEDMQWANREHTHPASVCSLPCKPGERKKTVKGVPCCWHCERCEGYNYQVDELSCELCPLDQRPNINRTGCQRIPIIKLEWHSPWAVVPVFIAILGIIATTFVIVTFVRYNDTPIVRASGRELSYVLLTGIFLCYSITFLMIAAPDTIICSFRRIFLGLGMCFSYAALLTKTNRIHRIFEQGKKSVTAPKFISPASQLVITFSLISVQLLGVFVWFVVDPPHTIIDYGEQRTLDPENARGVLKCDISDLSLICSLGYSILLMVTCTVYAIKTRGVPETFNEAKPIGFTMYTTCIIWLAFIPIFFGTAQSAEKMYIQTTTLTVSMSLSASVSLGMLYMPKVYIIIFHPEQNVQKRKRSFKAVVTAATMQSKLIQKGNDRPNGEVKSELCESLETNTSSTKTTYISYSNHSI
row,Structure (SMILES),z-score
1,COc1ccccc1S(=O)(=O)Cc1ccc(C(=O)N2CCCC2)o1,-0.34
2,CCNC(=S)N/N=C(\C)c1ccc(Cl)s1,active: 4.7
3,CCN(CC)C(=O)Oc1ccc2c(=O)c(-c3ccc(OC)cc3)c(C)oc2c1,-0.142
4,Cc1cccn2c(=O)c3cc(C#N)c(=O)n(CCCN4CCOCC4)c3nc12,-0.248
5,Clc1ccc(CSc2nnc(-c3cccnc3)o2)cc1,-0.291
6,O=C(NCCCCNC(=O)c1cccnc1)c1cccnc1,active: 8.98
7,Cc1oc(-c2ccccc2)cc1C(=O)Nc1cccc(C(=O)O)c1,-2.65
8,Cc1ccc2nc3c(cc(C(N)=S)c(=N)n3CCCOC(C)C)c(=O)n2c1,0.823
9,CCC(=O)c1cn(CC(=O)NCc2ccco2)c2ccccc12,-0.0249
10,Cc1cc2ccccc2n2c(SCC(=O)NCc3cccs3)nnc12,-0.225
11,COC(=O)c1ccccc1NS(=O)(=O)c1ccc2[nH]c(=O)[nH]c2c1,-0.413
12,CS(=O)(=O)N(CC(=O)O)c1cccc(Cl)c1,-0.142
13,O=C(Nc1nc(-c2ccccc2)c(-c2ccccc2)s1)c1ccc(S(=O)(=O)N2CCCCC2)cc1,-0.0357
14,CCc1c(C)sc(NC(=O)C2CCCO2)c1C#N (stereo not given),0.364
15,Cc1ccc(NC(=O)C2(c3ccc([N+](=O)[O-])cc3)CCCC2)cc1,0.0272
16,CC1=CC(C)(C)N(C(=O)CSc2ncn[nH]2)c2ccc(C)cc21,0.223
17,CCn1c(SCC(=O)c2c(N)n(C)c(=O)n(C)c2=O)nnc1-c1ccccc1,-0.454
18,O=c1cc(Cn2ccnc2)c2cc3c(cc2o1)CCC3,-0.907
19,Cc1cc(C(=O)Nc2ccccc2)c(C)o1,0.0608
20,CCc1ccc(CN(C(=O)c2cc3ccccc3oc2=O)C2CCS(=O)(=O)C2)cc1 (stereo not given),-0.0477
21,COCc1cc(C)n(CC(=O)Nc2ccc(Cl)cc2Cl)c(=O)c1C#N,-0.169
22,Cc1cc(NC(=O)c2ccccc2-c2ccccc2)ccc1Br,-0.2

row,Structure (SMILES),z-score
1,CCCC1(C(=O)OCC)NC(c2ccc(OC)cc2OC)C2C(=O)N(c3ccc4c(c3)OCCO4)C(=O)C21 (stereo not given),0.33
2,COC(=O)c1ccc(C)c(NC(=O)CCSc2ccc(Cl)cc2)c1,-0.0919
3,O=C(NCc1cccnc1)NC1CCCN1S(=O)(=O)c1ccc(Cl)cc1 (stereo not given),-0.196
4,COc1cccc(C(=O)N2c3ccccc3Sc3ccccc32)c1,-0.594
5,CCNc1nc(N)nc(Oc2ccc(OCCOc3ccccc3)nn2)n1,-0.223
6,CCOc1ccc(OCCCC(=O)O)cc1,-0.228
7,COc1ccc(OCC(=O)NCCCN2CCOCC2)cc1,0.807
8,C/C(=N\Nc1cc(Cl)nc(C)n1)c1ccc(C)cc1,-0.214
9,COC(=O)c1ccccc1NC(=O)Nc1cc(C)cc(C)n1,0.889
10,CN(C)CCCn1c(NCc2ccc3c(c2)OCO3)nc2ccccc21,-0.352
11,Cc1ccc(-c2cc(C(=O)NCCc3ccccn3)c3ccccc3n2)c(C)c1,-0.736
12,Cc1ccc(S(=O)(=O)N2CCCC2)cc1C(=O)O,0.0535
13,Clc1ccc(Cc2nc(-c3cccnc3)no2)cc1,0.0204
14,CC1=CC(C)(C)Nc2ccc(OC(=O)C(Cc3ccccc3)N3C(=O)c4ccccc4C3=O)cc21 (stereo not given),1.05
15,O=C(CCCOc1ccc(Cl)cc1Cl)N/N=C/c1ccc(Cl)cc1,0.0156
16,Cc1ccccc1NC(=O)C1c2cccc[n+]2CC(=O)N1c1c(C)cccc1C (stereo not given),-0.34
17,COc1cc(NC(=O)c2ccco2)c(C(=O)OCC(=O)Nc2ncc(Cl)cc2Cl)cc1OC,-0.275
18,O=[N+]([O-])c1ccc(NCCNS(=O)(=O)c2ccccc2)c(C(F)(F)F)c1,-0.328
19,COc1ccc(CCNc2oc(-c3ccc(OC)c(OC)c3)nc2C#N)cc1,-0.402
20,Cc1cc(C(=O)N/N=C/c2cc(N=Nc3ccccc3)ccc2O)n[nH]1,0.249
21,Cc1ccc2ncnc(NCCCN3CCOCC3)c2c1,0.399
22,O=C(C1CCN(S(=O)(=O)c2cccc3cccnc23)CC1)N1CCCC1,0.116

row,Structure (SMILES),z-score
1,CC(=O)Nc1ccc2c(c1)CCC2=O,0.663
2,Cc1nc2ccc(S(=O)(=O)NCC(=O)N3CCc4ccccc43)cc2s1,0.0182
3,CC(C)(C)c1ccc2c(c1)OCC(C(=O)O)O2 (stereo not given),-0.0992
4,S=C(NN=C1CCCCCC1)Nc1ccc(Cl)cc1,active: 9.7
5,Cc1nc2cc(N3CCCCC3)c(NC(=O)c3cccnc3)cc2c(=O)n1Cc1ccccc1,-0.332
6,COc1cc(-c2nnc(CSc3nnc(Nc4ccc(C(C)C)cc4)s3)o2)cc(OC)c1OC,0.152
7,CCOc1ccc(C(=O)CSc2nnc(N)s2)cc1,-0.322
8,N=C1S/C(=C\c2cccc3ccccc23)C(=O)N1c1ccc(F)cc1,-0.0772
9,Cc1c(C(=O)C(=O)NCCc2ccc(S(N)(=O)=O)cc2)c2ccccc2n1C,-0.183
10,O=C(CSCc1ccc(Cl)cc1)N/N=C/c1ccc(OCC(=O)Nc2ccccc2)cc1,-0.00465
11,O=C(NC1(C(F)(F)F)NC(=O)N(c2ccccc2)C1=O)c1cccs1 (stereo not given),-0.132
12,COc1ccc(-n2c(C)cc(/C=N/Nc3nc(N4CCOCC4)nc(N4CCOCC4)n3)c2C)cc1,0.604
13,COc1ccc(C(=O)Nc2nc3ccc(S(C)(=O)=O)cc3s2)cc1,0.0981
14,CCCNC(=O)c1cccc(COCC(F)(F)C(F)F)c1,-0.0567
15,CCSc1ncc(C#N)c(=O)[nH]1,-0.267
16,Cc1sc2ncn(CC(=O)NCCN3CCOCC3)c(=O)c2c1S(=O)(=O)N1CCC(C)CC1,0.00208
17,Nc1nonc1-c1nc2ccccc2n1Cc1ccc(F)cc1Cl,0.0909
18,Cc1ccc(C(=O)CC2(O)C(=O)N(CCc3ccccc3)c3ccc(Br)cc32)o1 (stereo not given),-0.462
19,CCC(C)(C(=O)NC1CCCCC1)N(Cc1ccco1)C(=O)c1cnccn1 (stereo not given),0.106
20,CCCC1NC(=S)N(C2CCCCC2)C1=O (stereo not given),0.0696
21,O=C(Cn1cc(SCc2cccc(Cl)c2)c2ccccc21)N1CCOCC1,-0.143
22,CCc1c(O)nc(SCC(=O)NC(C)(C)C)n(-c2ccccc2)c1=O,-0.439

row,Structure (SMILES),z-score
1,Cc1cc(C)nc(SC2CCCCC2NS(=O)(=O)c2ccc(Cl)cc2)n1 (stereo not given),-0.454
2,O=C(CSC(=S)N1CCOCC1)c1ccccc1,-0.26
3,O=C(CC12CC3CC(CC(C3)C1)C2)NCC(=O)OCc1cc(=O)oc2ccc3ccccc3c12,-0.205
4,O=C(COc1ccc(S(=O)(=O)Nc2ccccc2)cc1)N1CCOCC1,0.295
5,Cc1ccc(C(=O)CSc2nccn2-c2ccccc2)cc1,-0.266
6,COc1ccccc1-n1c(SCC(N)=O)nnc1-c1ccccc1,-0.816
7,COC(=O)c1cccc(NC(=O)CCCOc2ccccc2)c1,-0.111
8,N#CC(c1nc2ccccc2nc1N1CCCC1)S(=O)(=O)c1ccccc1 (stereo not given),-0.235
9,Cc1ccc([N+](=O)[O-])cc1NC(=O)CCCOc1ccccc1,-0.134
10,CCCN1C(=O)c2cccc3c(N4CCCCC4)ccc(c23)C1=O,-0.337
11,COC(=O)Cc1[nH]nc2c1C1(C(=O)N(Cc3ccccc3)c3ccccc31)C(C#N)=C(N)O2 (stereo not given),0.121
12,O=S(=O)(c1cccc2cccnc12)N1CCN(c2ccccc2)CC1,0.0932
13,CCc1cc(=O)oc2cc(OC(C)=O)cc(OC(C)=O)c12,-0.0844
14,Cc1nn(-c2ccccc2)c(C)c1NC(=O)c1cccs1,-0.0112
15,O=C(Nc1ccc2c(c1)CCC2)c1cnccn1,-0.104
16,CC(C)(C)c1ccc(-c2noc(CCC(N)=O)n2)cc1,0.388
17,COc1cc(/C=C/C(=O)Nc2nnc(CC(C)C)s2)cc(OC)c1OC,-0.317
18,Cn1c(=O)c2c(nc(SCCCC#N)n2Cc2c(F)cccc2Cl)n(C)c1=O,-1.91
19,CCOC(=O)C1CCN(C(=O)C2c3ccccc3C(=O)N(C)C2c2ccc(OC)cc2)CC1 (stereo not given),0.537
20,CC1CCN(CC(O)COC2CCC(C(C)(C)C)CC2)CC1 (stereo not given),active: 4.18
21,COC(=O)C1(C)NC(c2cccs2)C2C(=O)N(c3ccc(F)cc3)C(=O)C21 (stereo not given),-0.124
22,O=C(CCN1C(=O)C2C3C=CC(C3)C2C1=O)NC1CCCc2ccccc21 (stereo not given),-0.108

row,Structure (SMILES),z-score
1,COc1ccc(OC2C(=O)N(c3ccc(F)cc3)C2c2ccc(OC)c(OC)c2)cc1 (stereo not given),-0.361
2,CSCCC(NC(=O)c1cc([N+](=O)[O-])cc([N+](=O)[O-])c1)c1nc2ccccc2[nH]1 (stereo not given),-0.0904
3,O=C(Cn1cnc2ccccc2c1=O)Nc1ccc(-c2nnc3n2CCCCC3)cc1,-0.375
4,CC(C)CNS(=O)(=O)c1ccc(CCC(=O)O)cc1,-0.0258
5,Cc1ccc(C(=O)CSc2nc3ccccc3c(=O)n2-c2ccccc2)s1,0.061
6,NC(=O)CC1Nc2cccc3cccc(c23)NC1=O (stereo not given),-0.21
7,CCN(Cc1cc2ccccc2[nH]c1=O)C(=O)C1CCCCC1,0.0811
8,Cc1sc2ncnc(N[C@@H](Cc3c[nH]c4ccccc34)C(=O)O)c2c1C,0.0177
9,CC(=O)Nc1ccc(S(=O)(=O)Nc2nc3ccccc3nc2Nc2ccccc2)cc1,-0.7
10,FC(F)(F)c1ccccc1/C=N/N1CCN(Cc2ccccc2)CC1,-0.352
11,O=C(NC(=S)NC1C2CC3CC(C2)CC1C3)C12CC3CC(CC(C3)C1)C2 (stereo not given),0.0926
12,Cc1ccc(NC(=O)CSCC(=O)N2c3ccccc3CCc3ccccc32)cc1,-0.986
13,Cc1cc(/C=C(\C#N)C(=O)NC2CC2)c(C)[nH]1,0.155
14,N#CC1=C(N)Oc2ccccc2C12C(=O)Nc1n[nH]c(-c3ccccc3)c12 (stereo not given),0.824
15,O=S(=O)(c1ccc(S(=O)(=O)N2CCCN(Cc3ccccc3)C2)cc1)N1CCCCCC1,-0.158
16,CC1=C/C(=N\Nc2ccccc2[N+](=O)[O-])CC(C)(C)C1,-0.268
17,O=C1Nc2cc(Cl)c(Cl)cc2N(O)N1c1cc(Cl)cc(Cl)c1,-0.38
18,COc1cc(C)nc(NS(=O)(=O)c2ccccc2)n1,0.541
19,COc1ccc(C(=O)c2ccc(Cl)cc2Cl)cc1,0.127
20,O=C(c1ccccc1)c1cncc(Br)c1,-0.00898
21,COc1ccccc1OCCOCCn1cnc2ccccc2c1=O,-0.162
22,CCOC(=O)/C(=N\Nc1cccc(C(F)(F)F)c1)N(CCOC)CCOC,-0.336
